Reference: article PMC11763304
Results are given in words; binding and its absence hold for the method and conditions named. In cells and extracts the contact can be indirect. Some results given as binding are weak or reduced against the parent protein; the word gives no strength. For part of these data: Where a sequence is shown, tags or fusion partners need not be part of it.

Sequences of proteins named here, by UniProt entry; tags and fusion partners are left off.
UniProt Q14457: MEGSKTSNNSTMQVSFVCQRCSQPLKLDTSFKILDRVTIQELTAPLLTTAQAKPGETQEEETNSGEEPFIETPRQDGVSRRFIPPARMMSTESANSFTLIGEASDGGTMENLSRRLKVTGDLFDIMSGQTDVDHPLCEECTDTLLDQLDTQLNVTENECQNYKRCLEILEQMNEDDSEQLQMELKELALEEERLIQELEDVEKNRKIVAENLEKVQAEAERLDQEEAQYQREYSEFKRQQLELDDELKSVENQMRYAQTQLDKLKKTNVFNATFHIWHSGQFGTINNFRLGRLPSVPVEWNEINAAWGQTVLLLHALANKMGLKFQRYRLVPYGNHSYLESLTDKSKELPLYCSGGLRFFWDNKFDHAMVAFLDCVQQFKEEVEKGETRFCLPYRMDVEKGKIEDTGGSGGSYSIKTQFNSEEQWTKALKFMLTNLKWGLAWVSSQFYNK
UniProt Q91XJ1: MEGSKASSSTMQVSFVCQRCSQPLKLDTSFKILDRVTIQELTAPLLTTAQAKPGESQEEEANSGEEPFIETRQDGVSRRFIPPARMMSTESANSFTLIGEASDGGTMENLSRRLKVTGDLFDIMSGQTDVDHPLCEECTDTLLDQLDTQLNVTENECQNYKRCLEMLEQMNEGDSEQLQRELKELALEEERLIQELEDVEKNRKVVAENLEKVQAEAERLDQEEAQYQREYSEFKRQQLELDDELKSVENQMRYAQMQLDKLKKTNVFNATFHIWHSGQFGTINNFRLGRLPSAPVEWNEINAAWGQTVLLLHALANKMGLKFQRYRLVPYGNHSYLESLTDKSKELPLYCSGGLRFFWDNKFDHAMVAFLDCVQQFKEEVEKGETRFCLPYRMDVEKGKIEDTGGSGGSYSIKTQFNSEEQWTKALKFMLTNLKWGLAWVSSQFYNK
UniProt Q6ZNE5: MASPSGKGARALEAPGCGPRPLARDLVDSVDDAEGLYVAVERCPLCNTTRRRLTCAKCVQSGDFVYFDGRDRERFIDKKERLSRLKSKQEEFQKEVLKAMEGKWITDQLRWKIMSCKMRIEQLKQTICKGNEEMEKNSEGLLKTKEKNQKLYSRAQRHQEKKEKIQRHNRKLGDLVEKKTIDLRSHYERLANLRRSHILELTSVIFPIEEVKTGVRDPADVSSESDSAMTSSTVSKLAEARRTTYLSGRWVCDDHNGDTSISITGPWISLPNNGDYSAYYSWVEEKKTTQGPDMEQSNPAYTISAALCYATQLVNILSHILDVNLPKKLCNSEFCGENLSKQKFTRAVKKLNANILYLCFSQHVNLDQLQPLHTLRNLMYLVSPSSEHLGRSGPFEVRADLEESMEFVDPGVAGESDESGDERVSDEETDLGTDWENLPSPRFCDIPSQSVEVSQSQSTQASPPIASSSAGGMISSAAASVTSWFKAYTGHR
UniProt Q99570: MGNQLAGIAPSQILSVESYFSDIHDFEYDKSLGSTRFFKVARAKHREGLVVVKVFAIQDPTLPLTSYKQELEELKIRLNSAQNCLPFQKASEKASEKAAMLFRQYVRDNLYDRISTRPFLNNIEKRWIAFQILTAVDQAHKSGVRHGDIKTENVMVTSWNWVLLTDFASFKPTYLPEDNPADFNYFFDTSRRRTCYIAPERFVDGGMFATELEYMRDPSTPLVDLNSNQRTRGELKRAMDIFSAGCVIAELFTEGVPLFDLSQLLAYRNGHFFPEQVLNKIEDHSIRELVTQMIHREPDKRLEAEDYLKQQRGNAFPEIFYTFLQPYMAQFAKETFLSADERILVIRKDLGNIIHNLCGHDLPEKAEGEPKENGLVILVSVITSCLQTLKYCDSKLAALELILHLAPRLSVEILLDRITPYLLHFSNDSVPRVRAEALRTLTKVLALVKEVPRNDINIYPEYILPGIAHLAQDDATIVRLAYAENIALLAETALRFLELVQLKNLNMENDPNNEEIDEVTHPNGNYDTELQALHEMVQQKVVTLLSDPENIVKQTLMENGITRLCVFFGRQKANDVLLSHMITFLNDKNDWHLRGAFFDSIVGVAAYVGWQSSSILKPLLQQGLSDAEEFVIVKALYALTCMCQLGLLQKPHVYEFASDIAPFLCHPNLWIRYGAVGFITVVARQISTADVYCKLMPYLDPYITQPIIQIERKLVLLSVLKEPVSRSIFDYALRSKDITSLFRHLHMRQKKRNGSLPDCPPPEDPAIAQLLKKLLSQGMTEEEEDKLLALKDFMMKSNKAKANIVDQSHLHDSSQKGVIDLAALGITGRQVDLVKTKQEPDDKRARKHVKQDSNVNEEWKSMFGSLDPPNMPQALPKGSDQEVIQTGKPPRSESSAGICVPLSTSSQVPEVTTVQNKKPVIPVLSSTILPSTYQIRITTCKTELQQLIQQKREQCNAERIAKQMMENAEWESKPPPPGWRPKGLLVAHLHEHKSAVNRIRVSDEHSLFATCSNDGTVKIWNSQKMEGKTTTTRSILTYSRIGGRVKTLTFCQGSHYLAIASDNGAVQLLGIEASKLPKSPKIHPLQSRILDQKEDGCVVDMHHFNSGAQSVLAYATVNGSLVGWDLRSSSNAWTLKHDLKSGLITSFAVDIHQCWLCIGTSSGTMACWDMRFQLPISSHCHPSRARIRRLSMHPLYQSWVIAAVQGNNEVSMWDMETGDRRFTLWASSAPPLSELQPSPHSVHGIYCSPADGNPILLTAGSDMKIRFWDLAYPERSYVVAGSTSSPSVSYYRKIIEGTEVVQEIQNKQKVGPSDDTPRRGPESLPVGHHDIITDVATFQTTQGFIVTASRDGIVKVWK
UniProt Q8NEB9: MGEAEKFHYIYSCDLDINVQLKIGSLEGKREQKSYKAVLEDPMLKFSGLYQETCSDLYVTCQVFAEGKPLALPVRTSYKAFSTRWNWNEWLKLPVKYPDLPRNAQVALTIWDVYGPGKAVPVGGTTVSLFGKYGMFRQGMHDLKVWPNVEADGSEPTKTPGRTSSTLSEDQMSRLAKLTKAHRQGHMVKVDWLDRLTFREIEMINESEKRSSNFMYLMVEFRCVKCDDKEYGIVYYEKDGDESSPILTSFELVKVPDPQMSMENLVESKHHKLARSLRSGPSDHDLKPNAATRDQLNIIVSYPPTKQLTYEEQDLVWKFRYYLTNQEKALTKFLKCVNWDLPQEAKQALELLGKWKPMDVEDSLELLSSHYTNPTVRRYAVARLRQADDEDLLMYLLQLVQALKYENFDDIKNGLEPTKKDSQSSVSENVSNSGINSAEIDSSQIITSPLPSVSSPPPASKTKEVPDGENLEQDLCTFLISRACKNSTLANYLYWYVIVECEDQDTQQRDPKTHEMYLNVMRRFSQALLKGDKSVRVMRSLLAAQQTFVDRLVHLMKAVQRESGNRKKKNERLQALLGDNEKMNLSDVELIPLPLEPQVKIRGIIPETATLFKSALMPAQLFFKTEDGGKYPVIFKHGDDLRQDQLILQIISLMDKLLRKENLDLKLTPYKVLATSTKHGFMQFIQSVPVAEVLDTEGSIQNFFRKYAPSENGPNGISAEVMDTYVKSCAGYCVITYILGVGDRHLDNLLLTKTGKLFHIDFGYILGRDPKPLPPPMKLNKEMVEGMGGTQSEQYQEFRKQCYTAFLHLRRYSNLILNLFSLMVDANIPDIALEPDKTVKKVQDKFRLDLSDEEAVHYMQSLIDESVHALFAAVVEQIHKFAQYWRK

Legend:
[1] = target: FLAG-tagged Beclin 1 (UniProt Q14457); assay: co-IP; HEK293 cells co-transfected; bait immunoprecipitated from cleared lysate with anti-FLAG (M2) or anti-HA (12CA5) overnight at 4 °C, Protein A agarose; control mouse IgG; FE65 detected with anti-FE65 (E20) or anti-myc
[2] = target: Beclin 1, endogenous in rat brain (rat (endogenous in rat brain)) (UniProt Q91XJ1); assay: co-IP; rat brain lysate; endogenous Beclin 1 immunoprecipitated with anti-Beclin 1 (Proteintech); FE65 detected with anti-FE65 (E20)
[3] = target: FLAG-ATG14L (UniProt Q6ZNE5); assay: co-IP; HEK293 cells co-transfected; bait immunoprecipitated from cleared lysate with anti-FLAG (M2) or anti-HA (12CA5) overnight at 4 °C, Protein A agarose; control mouse IgG; FE65 detected with anti-FE65 (E20) or anti-myc
[4] = target: FLAG-VPS15 (UniProt Q99570); assay: as above
[5] = target: HA-VPS34 (UniProt Q8NEB9); assay: as above

Binder	binding [1]	further results
myc-FE65^ΔNt (deleting amino acids 1–218) (domain or fragment, UniProt O00213 219-710) DEDSSWATLSQGSPSYGSPEDTDSFWNPNAFETDSDLPAGWMRVQDTSGTYYWHIPTGTTQWEPPGRASPSQGSSPQEESQLTWTGFAHGEGFEDGEFWKDEPSDEAPMELGLKEPEEGTLTFPAQSLSPEPLPQEEEKLPPRNTNPGIKCFAVRSLGWVEMTEEELAPGRSSVAVNNCIRQLSYHKNNLHDPMSGGWGEGKDLLLQLEDETLKLVEPQSQALLHAQPIISIRVWGVGRDSGRERDFAYVARDKLTQMLKCHVFRCEAPAKNIATSLHEICSKIMAERRNARCLVNGLSLDHSKLVDVPFQVEFPAPKNELVQKFQVYYLGNVPVAKPVGVDVINGALESVLSSSSREQWTPSHVSVAPATLTILHQQTEAVLGECRVRFLSFLAVGRDVHTFAFIMAAGPASFCCHMFWCEPNAASLSEAVQAACMLRYQKCLDARSQASTSCLPAPPAESVARRVGWTVRRGVQSLWGSLKPKRLGAHTP	binds	–
FE65, endogenous in rat brain (protein, UniProt P46933 1-711) MSVPSSLSQSAINANSHGGPALSFPFPLHAAHNQLLNAKLQATAVVPKDLRSAMGEGSVPEPGPANAKWLKEGQNQLRRAATAHRDQNRNVTLTLAEEASQEAETAPLGPKGLMHLYSELELSAHNAANRGLHGSALIINTQGLGPDEGEEKAAGEVEEEDEDEEEEDEEEEDLSSPQGLPEPLENVEVPSGPQVLTDGPREHSKSASLLFGMRNSAASDEDSSWATLSQGSPSYGSPEDTDSFWNPNAFETDSDLPAGWMRVQDTSGTYYWHIPTGTTQWEPPGRASPSQGNSPQEESQLTWTGFAHQEGFEEGEFWKDEPSEEAPMELGLKDPEEGTLPFSAQSLSPEPVPQEEENLPQRNANPGIKCFAVRSLGWVEMTEEELAPGRSSVAVNNCIRQLSYHKNNLHDPMSGGWGEGKDLLLQLEDETLKLVEPQNQTLLHAQPIVSIRVWGVGRDSGRERDFAYVARDKLTQMLKCHVFRCEAPAKNIATSLHEICSKIMSERRNARCLVNGLSLDHSKLVDVPFQVEFPAPKNELVQKFQVYYLGNVPVAKPVGVDVINGALESVLSSSSREQWTPSHVSVAPATLTILHQQTEAVLGECRVRFLSFLAVGRDVHTFAFIMAAGPASFCCHMFWCEPNAASLSEAVQAACMLRYQKCLDARSQTSTSCLPAPPAESVARRVGWTVRRGVQSLWGSLKPKRLGSQTP	–	binding [2]: binds
myc-FE65 (protein, UniProt O00213 1-710) MSVPSSLSQSAINANSHGGPALSLPLPLHAAHNQLLNAKLQATAVGPKDLRSAMGEGGGPEPGPANAKWLKEGQNQLRRAATAHRDQNRNVTLTLAEEASQEPEMAPLGPKGLIHLYSELELSAHNAANRGLRGPGLIISTQEQGPDEGEEKAAGEAEEEEEDDDDEEEEEDLSSPPGLPEPLESVEAPPRPQALTDGPREHSKSASLLFGMRNSAASDEDSSWATLSQGSPSYGSPEDTDSFWNPNAFETDSDLPAGWMRVQDTSGTYYWHIPTGTTQWEPPGRASPSQGSSPQEESQLTWTGFAHGEGFEDGEFWKDEPSDEAPMELGLKEPEEGTLTFPAQSLSPEPLPQEEEKLPPRNTNPGIKCFAVRSLGWVEMTEEELAPGRSSVAVNNCIRQLSYHKNNLHDPMSGGWGEGKDLLLQLEDETLKLVEPQSQALLHAQPIISIRVWGVGRDSGRERDFAYVARDKLTQMLKCHVFRCEAPAKNIATSLHEICSKIMAERRNARCLVNGLSLDHSKLVDVPFQVEFPAPKNELVQKFQVYYLGNVPVAKPVGVDVINGALESVLSSSSREQWTPSHVSVAPATLTILHQQTEAVLGECRVRFLSFLAVGRDVHTFAFIMAAGPASFCCHMFWCEPNAASLSEAVQAACMLRYQKCLDARSQASTSCLPAPPAESVARRVGWTVRRGVQSLWGSLKPKRLGAHTP	binds	binding [3]: no binding; binding [4]: no binding; binding [5]: no binding

Second part, led by results:

binding [1]	Binder	further results
binds	myc-FE65^ΔWW (deleting amino acids 248–290) (protein, UniProt O00213) MSVPSSLSQSAINANSHGGPALSLPLPLHAAHNQLLNAKLQATAVGPKDLRSAMGEGGGPEPGPANAKWLKEGQNQLRRAATAHRDQNRNVTLTLAEEASQEPEMAPLGPKGLIHLYSELELSAHNAANRGLRGPGLIISTQEQGPDEGEEKAAGEAEEEEEDDDDEEEEEDLSSPPGLPEPLESVEAPPRPQALTDGPREHSKSASLLFGMRNSAASDEDSSWATLSQGSPSYGSPEDTDSFWNPNGSSPQEESQLTWTGFAHGEGFEDGEFWKDEPSDEAPMELGLKEPEEGTLTFPAQSLSPEPLPQEEEKLPPRNTNPGIKCFAVRSLGWVEMTEEELAPGRSSVAVNNCIRQLSYHKNNLHDPMSGGWGEGKDLLLQLEDETLKLVEPQSQALLHAQPIISIRVWGVGRDSGRERDFAYVARDKLTQMLKCHVFRCEAPAKNIATSLHEICSKIMAERRNARCLVNGLSLDHSKLVDVPFQVEFPAPKNELVQKFQVYYLGNVPVAKPVGVDVINGALESVLSSSSREQWTPSHVSVAPATLTILHQQTEAVLGECRVRFLSFLAVGRDVHTFAFIMAAGPASFCCHMFWCEPNAASLSEAVQAACMLRYQKCLDARSQASTSCLPAPPAESVARRVGWTVRRGVQSLWGSLKPKRLGAHTP	–
binds	myc-FE65^ΔPTB1 (deleting amino acids 368–530) (protein, UniProt O00213) MSVPSSLSQSAINANSHGGPALSLPLPLHAAHNQLLNAKLQATAVGPKDLRSAMGEGGGPEPGPANAKWLKEGQNQLRRAATAHRDQNRNVTLTLAEEASQEPEMAPLGPKGLIHLYSELELSAHNAANRGLRGPGLIISTQEQGPDEGEEKAAGEAEEEEEDDDDEEEEEDLSSPPGLPEPLESVEAPPRPQALTDGPREHSKSASLLFGMRNSAASDEDSSWATLSQGSPSYGSPEDTDSFWNPNAFETDSDLPAGWMRVQDTSGTYYWHIPTGTTQWEPPGRASPSQGSSPQEESQLTWTGFAHGEGFEDGEFWKDEPSDEAPMELGLKEPEEGTLTFPAQSLSPEPLPQEEEKLPPRNTNPGIEFPAPKNELVQKFQVYYLGNVPVAKPVGVDVINGALESVLSSSSREQWTPSHVSVAPATLTILHQQTEAVLGECRVRFLSFLAVGRDVHTFAFIMAAGPASFCCHMFWCEPNAASLSEAVQAACMLRYQKCLDARSQASTSCLPAPPAESVARRVGWTVRRGVQSLWGSLKPKRLGAHTP	–
no binding	myc-FE65^ΔPTB2+Ct (deleting amino acids 518–710) (domain or fragment, UniProt O00213 1-517) MSVPSSLSQSAINANSHGGPALSLPLPLHAAHNQLLNAKLQATAVGPKDLRSAMGEGGGPEPGPANAKWLKEGQNQLRRAATAHRDQNRNVTLTLAEEASQEPEMAPLGPKGLIHLYSELELSAHNAANRGLRGPGLIISTQEQGPDEGEEKAAGEAEEEEEDDDDEEEEEDLSSPPGLPEPLESVEAPPRPQALTDGPREHSKSASLLFGMRNSAASDEDSSWATLSQGSPSYGSPEDTDSFWNPNAFETDSDLPAGWMRVQDTSGTYYWHIPTGTTQWEPPGRASPSQGSSPQEESQLTWTGFAHGEGFEDGEFWKDEPSDEAPMELGLKEPEEGTLTFPAQSLSPEPLPQEEEKLPPRNTNPGIKCFAVRSLGWVEMTEEELAPGRSSVAVNNCIRQLSYHKNNLHDPMSGGWGEGKDLLLQLEDETLKLVEPQSQALLHAQPIISIRVWGVGRDSGRERDFAYVARDKLTQMLKCHVFRCEAPAKNIATSLHEICSKIMAERRNARCLVNGLS	–
